In article PMC4336329 (PLoS ONE, 2015):
Among all 310,000 compounds or so, about 2,200 (0.71%) showed an effect of 50% or more. The effect is printed as a negative number. The list shows a part of the results.

What follows are compounds tested against human ether-à-go-go-related gene (hERG) potassium channel (human, UniProt Q12809) (assay: primary screen, population patch clamp on CHO cells stably expressing hERG).
human ether-à-go-go-related gene (hERG) potassium channel, sequence (Q12809 whole entry, looked up): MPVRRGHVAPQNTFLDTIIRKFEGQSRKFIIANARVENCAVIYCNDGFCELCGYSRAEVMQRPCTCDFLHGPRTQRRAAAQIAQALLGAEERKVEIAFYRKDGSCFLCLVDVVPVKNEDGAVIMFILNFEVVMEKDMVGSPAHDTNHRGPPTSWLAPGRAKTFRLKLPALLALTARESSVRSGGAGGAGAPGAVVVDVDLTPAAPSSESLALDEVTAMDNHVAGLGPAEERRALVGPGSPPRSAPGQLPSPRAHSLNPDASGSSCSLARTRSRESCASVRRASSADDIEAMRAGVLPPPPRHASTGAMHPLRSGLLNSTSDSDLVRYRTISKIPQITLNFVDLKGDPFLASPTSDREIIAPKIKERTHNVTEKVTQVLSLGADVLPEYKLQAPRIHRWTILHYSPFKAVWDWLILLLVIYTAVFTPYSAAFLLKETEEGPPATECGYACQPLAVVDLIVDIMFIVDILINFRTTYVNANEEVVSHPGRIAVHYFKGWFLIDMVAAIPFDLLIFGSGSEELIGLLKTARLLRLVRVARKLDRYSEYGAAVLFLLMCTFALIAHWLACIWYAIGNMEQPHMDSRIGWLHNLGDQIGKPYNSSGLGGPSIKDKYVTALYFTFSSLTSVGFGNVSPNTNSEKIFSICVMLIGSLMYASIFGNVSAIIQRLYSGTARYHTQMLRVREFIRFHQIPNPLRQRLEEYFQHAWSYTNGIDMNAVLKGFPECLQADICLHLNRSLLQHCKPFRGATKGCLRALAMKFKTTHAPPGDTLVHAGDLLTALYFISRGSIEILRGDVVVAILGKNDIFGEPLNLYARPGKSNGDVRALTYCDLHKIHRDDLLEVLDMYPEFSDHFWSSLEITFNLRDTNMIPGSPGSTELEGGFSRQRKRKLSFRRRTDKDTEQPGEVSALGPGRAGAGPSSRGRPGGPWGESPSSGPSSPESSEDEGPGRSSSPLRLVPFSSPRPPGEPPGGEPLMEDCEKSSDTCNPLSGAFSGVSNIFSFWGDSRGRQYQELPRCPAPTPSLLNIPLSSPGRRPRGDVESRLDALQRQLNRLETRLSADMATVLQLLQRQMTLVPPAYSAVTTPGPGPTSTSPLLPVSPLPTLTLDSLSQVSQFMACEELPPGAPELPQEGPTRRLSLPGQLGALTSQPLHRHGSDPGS

Point of comparison: `Cc1ccc(CN2CCN(/N=C/c3cccnc3)CC2)cc1`, “hERG current change (%, negative = inhibition) at 1uM” value -1.07%. Against it:
- Cc1cnc(NC(=O)NCC2CCCC(CNC(=O)Nc3ncc(C)s3)C2)s1 (centres unmarked) — higher, 17.6%
- Cn1c(N)c(C(=O)CSc2ccccn2)c(=O)n(C)c1=O — higher, 13.9%
- Cc1cccc(/N=C/c2c(O)[nH]c3ccccc23)n1 — higher, 5.89%
- Cc1cc(Nc2nc3c(c(=O)n(C)c(=O)n3C)n2C)n(-c2ccc(Cl)cc2)n1 — higher, 0.849%
- CC(C)N1CCN(Cc2ccc3c(c2)Cc2ccccc2-3)CC1CCO (centres unmarked) — higher, 2.3%
- O=C(CN1C(=O)NC2(CCCC2)C1=O)OCCOc1ccccc1Cl — higher, 6.21%
- Brc1ccsc1-c1csc(-c2ccncc2)n1 — higher, 16.1%
- Oc1ccc(-c2nnc(-c3ccccc3)c(-c3ccccc3)n2)cc1 — higher, 6.87%
- CCOC(=O)c1c(N)n(CCCOC(=O)c2ccco2)c2nc3ccccc3nc12 — higher, 9%
- COc1ccc(-c2csc(NC(=O)COC(=O)Cc3ccccc3)n2)cc1OC — higher, 16%
- CN1CCC(N(C)Cc2cccnc2)CC1 — higher, 2.12%
- CC(=O)N1CCC(C(=O)N2CCN(S(=O)(=O)c3ccc(F)cc3)CC2)CC1 — higher, -0.492%
- O=C1CC(c2ccccc2)CC(O)=C1C=NCC1CCCO1 (centres unmarked) — higher, 6.56%
- Cn1nc(C(F)(F)F)c(CO)c1Sc1ccc(F)cc1 — higher, 8.79%
- CCCCOC(=O)C1=C(N)OC2=C(C(=O)CCC2)[C@]12C(=O)Nc1ccccc12 — higher, 8.45%
- Cc1ccc(Cn2ccc(NC(=O)c3noc4c3CCCC4)n2)cc1 — lower, -2.04%
- O=c1ccc2cc(S(=O)(=O)N3CCN(c4cc(Cl)ccc4Cl)CC3)ccc2o1 — higher, 5.49%
- CCn1c(-c2cc(Cl)ccc2OC)n[nH]c1=S — lower, -5.42%
- CCCOc1ccc(-c2c(C(=O)N/N=C/c3ccco3)nnn2-c2nonc2N)cc1 — higher, 17.3%
- CC(=O)N1CCN(CCN=CC2=C(O)CC(c3ccc(Cl)cc3)CC2=O)CC1 (centres unmarked) — lower, -4.18%
- CCO.Cc1nn(-c2ccccc2)c(Cl)c1C1C(C#N)=C(N)Oc2c1c(C)nn2-c1ccccc1 (centres unmarked) — higher, 10.7%
- Cn1c(=O)[nH]c(=O)c2c1nc(Br)n2CCC(=O)c1ccccc1 — higher, 16.6%
- Cc1ccc(-n2nc3c(c2NC(=O)c2cccs2)CS(=O)(=O)C3)c(C)c1 — higher, 8.74%
- N#Cc1nc(-c2ccccc2F)oc1NCc1cccc2c1OCO2 — lower, -10.9%
- O=S(=O)(Nc1ccccc1O)c1ccc(Cl)nc1 — higher, 11.1%
- CC(CN1CCC(O)CC1)c1ccccc1 (centres unmarked) — higher, 14.2%
- COCCCNC(=O)CN(c1cc(Cl)ccc1OC)S(C)(=O)=O — higher, 16%
- CC1CCCCN1C(=O)COC(=O)c1cc(-c2cccs2)nn1-c1ccccc1 (centres unmarked) — higher, 10.4%
- O=C(CSc1nnc(C2COc3ccccc3O2)o1)N1CCCC1 (centres unmarked) — higher, 12.4%
- COc1cc(C(=O)OCCCOC(=O)c2cc(OC)c(OC)c(OC)c2)cc(OC)c1OC — higher, 8.68%
- O=C(CCNS(=O)(=O)c1ccc(Cl)cc1)NCc1cccnc1 — higher, 15.7%
- CC(NC(=O)C1CCCN(C(=O)N(C)C)C1)c1ccccc1 (centres unmarked) — higher, 6.22%
- N#Cc1ccc(/C=N/NC(=O)c2cccc(S(=O)(=O)N3CCOCC3)c2)cc1 — higher, 10.1%
- O=C(CN1CCN(Cc2ccccc2)CC1)Nc1nc2ccccc2s1 — lower, -24.1%
- C=CCNc1ncnc2ccccc12 — higher, 18.2%
- Cc1ccc2c(C)cc[n+](CCCS(=O)(=O)[O-])c2c1 — higher, 6.56%
- CC(C)c1ccc(-c2c(C#N)c(N)nc3c2CCCCC3)cc1 — higher, 10.3%
- CCn1c(SCc2nc(N)nc(N3CCCCC3)n2)nc2c1c(=O)n(C)c(=O)n2C — higher, 0.506%
- CCc1ccc(OC(=O)c2ccn(CC)n2)cc1 — higher, 6.53%
- Cc1oc2cc3oc(=O)c(CC(=O)NCCCC(=O)O)c(C)c3cc2c1C — higher, 23.6%
- Cc1cccc(C)c1N(CC(=O)NCc1ccc(F)cc1)C(=O)c1csnn1 — higher, 11.3%
- CN(Cc1cccnc1)C(=O)c1ccc2nc(Cc3ccccc3F)oc2c1 — higher, 10.1%
- Cc1nc2sc(C(c3ccc(Cl)cc3)N3CCOCC3)c(O)n2n1 (centres unmarked) — higher, 0.0309%
- CCn1c(C)nnc1SCC(=O)Nc1ccc2c(c1)OCCO2 — higher, 5.21%
- CC(c1ccccc1)N1CCn2c(nc3cc(NS(C)(=O)=O)ccc32)C1 (centres unmarked) — higher, 4.9%
- Cc1ccc(C)c(-c2nnc(NC(=O)Cc3ccc(F)cc3)o2)c1 — higher, 16.8%
